Experimental data published in PMC7718735.
Results are given in words; binding and its absence hold for the method and conditions named.

T1: Lem2 MYTH bait (S. pombe), Q10109
T1 chain: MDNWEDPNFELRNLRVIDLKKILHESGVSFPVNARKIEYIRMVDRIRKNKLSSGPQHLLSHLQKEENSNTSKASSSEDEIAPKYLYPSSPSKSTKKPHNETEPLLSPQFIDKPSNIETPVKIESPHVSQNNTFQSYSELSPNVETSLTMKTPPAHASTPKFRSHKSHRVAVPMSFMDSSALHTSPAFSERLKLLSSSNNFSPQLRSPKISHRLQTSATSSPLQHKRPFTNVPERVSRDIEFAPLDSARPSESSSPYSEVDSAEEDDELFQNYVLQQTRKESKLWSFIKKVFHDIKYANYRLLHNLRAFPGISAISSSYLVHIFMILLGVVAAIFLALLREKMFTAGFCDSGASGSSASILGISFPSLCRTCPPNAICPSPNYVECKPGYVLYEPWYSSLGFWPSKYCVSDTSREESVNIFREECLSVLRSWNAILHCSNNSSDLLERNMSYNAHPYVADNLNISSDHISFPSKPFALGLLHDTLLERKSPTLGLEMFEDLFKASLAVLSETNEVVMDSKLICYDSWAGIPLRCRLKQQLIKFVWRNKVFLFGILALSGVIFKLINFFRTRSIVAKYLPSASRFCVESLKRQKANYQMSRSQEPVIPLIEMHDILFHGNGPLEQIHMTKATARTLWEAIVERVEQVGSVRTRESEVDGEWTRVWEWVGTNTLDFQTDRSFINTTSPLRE

T2: Ima1 MYTH bait (S. pombe), O13681
T2 chain: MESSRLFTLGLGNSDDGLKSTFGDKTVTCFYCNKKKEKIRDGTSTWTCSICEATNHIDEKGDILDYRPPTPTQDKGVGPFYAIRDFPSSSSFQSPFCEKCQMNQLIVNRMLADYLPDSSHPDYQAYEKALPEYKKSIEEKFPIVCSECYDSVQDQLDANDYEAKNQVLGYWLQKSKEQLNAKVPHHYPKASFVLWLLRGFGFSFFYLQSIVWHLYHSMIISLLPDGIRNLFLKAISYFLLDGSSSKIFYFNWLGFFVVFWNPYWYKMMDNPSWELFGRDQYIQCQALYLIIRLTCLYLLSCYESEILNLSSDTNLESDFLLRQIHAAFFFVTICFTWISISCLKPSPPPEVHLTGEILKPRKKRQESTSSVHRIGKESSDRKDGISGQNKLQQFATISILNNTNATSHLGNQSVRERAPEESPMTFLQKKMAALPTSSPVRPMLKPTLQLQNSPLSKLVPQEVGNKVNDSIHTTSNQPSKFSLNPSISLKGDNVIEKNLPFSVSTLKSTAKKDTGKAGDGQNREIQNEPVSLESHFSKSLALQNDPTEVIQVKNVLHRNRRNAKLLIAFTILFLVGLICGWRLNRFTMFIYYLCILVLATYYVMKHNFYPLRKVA

B1: Red1 MYTH prey, Q9UTR8 1-712 (protein)
chain: MSRSINLDELRKKALESKKKNEEDESNDSDKEDGEISEDDPVIDQSNSVPPMKVPTFPEQIPQLPPFDRFPGTNANFFPFGAPFMLPPALMFGPNTVPFFPQTASSNKTFSKRKRSSENSFNNRNKAKSSETSDSSNTSQSFKENRALKDTATSRPLALSSDTSYQKSEKAKSEKSPFLSTSKNSDANYSKTTNQKEAEKAVSQLFEVGVRFNDFIAEGIEPSVVHTLFLKLGLDSSSASSQGSLTLSADKAARSAKLRKIDSNLSDTHILPGDNGTPTVLPERKNLISLPLLKQDDWLSSSKPFGSSTPNVVIEFDSDDDGDDFSNSKIEQSNLEKPPSNSENGLTMSRSDYLALLRNKEEEIRRMTKLILRLESNKKPYRSPTSAADMKLPSVPVAAVDNKSKTHLDTFEKVVDLSSKADFVEAGPSISSSGASSSAATTNSDTTEQILEAPWLRKTEQIAVVHEEHPAQIKKSEIDILNNLIEKEEGELTKYQTLVKSKTEILTQLYTRKKQLLEQQGKGNVACLPKESDLSMDSITEVSAQADENSSQILSSKTSNAPNGTTETDFEDKVPLVDYISPFYRFKSYRFNQQFVERVPLKYRSLTYSNKIEPMKVFCKYETTGGVCNDDHCEASHFRDIKMTDDEIIQDLSRYIEGNDEIEKESYKSGLDIVMKNTDENTDFVDVATRIVEYHNLWKSERMTIPVAKVSI
B2: Sad1 MYTH prey, Q09825 1-514 (protein)
chain: MFTNTPVGGKRERQNGAHPAWSTLGANSAQIHQNTADLASKMHKLRYTKIRSPPTRVSIESITPKQRFPAPNFEQAYHSNIRYEQEESDNEEFENVVKNGHEASTNVFYESDGDDEEFVNEEYENSIDEESDDEGYSLNEDTTATNASFRYPMNQRSTRKSQFYSSKFKPLLWFGITLFSTLLIITLLHKGQEFYSRSFSSDNSQPSNSPVPNIPPASNDTKTSLKPDIIKDFTDSPSKVGGNEEFDYSTGDLITKKEFDKILQQKVEQLKQSLKEEMSNYKSSVPFEVELNDDWKFFIESTVRKYLTDPVSMPNFALLSTGAEVLPALTSKRYVRRPSAFIPRFTSYFFDSLVVRGHEPSIALTPNNAVAMCWSFQGSEGQLGISLSRPVYVTNVTIEHVQHKIAHDLSSAPKDFELWVQGMSSKMFVLLGKARYSLTEDSIQTFSFESSNYIVAEPIQNVILKIKSNWGNPNYTCLYQVRVHGTVPNADEQPIPSLGEKAESTAENTGQDSS

Experiments:
[1] = target: T1, Lem2 MYTH bait (S. pombe), Q10109; test: two-hybrid; split-ubiquitin membrane yeast two-hybrid (MYTH) in S. cerevisiae; bait-Cub-LexA-VP16 strains mated with the arrayed Nub prey library, diploids spotted in quadruplicate on SD-leu-trp-ade-his with 25 mM 3-AT, imaged every 24 hr for 4 days; positive by a colony density cutoff; conditions: remark: other sources report otherwise
[2] = target: T2, Ima1 MYTH bait (S. pombe), O13681; test: as above; conditions: remark: other sources report otherwise

Binder	binding [1]	binding [2]
B1	no binding	–
B2	–	no binding
